According to the antibiotic and cytotoxicity screens of Wong et al. (2023):
Some of the results follow.

Test system: HSkMC (human skeletal muscle cells)
Experiment: cytotoxicity call (relative viability < 0.9)
Conditions: 10 µM

Row | SMILES | cytotoxicity call
1 | C[C@H]1CN([C@@H](C)CO)C(=O)c2cc(NC(=O)Nc3ccc(C(F)(F)F)cc3)ccc2O[C@H]1CN(C)C(=O)Nc1ccc2c(c1)OCO2 | inactive
2 | CCS(=O)(=O)N(C)C[C@@H]1OCc2ccccc2-c2c(n(C)c3ccccc23)C(=O)N([C@H](C)CO)C[C@@H]1C | inactive
3 | C[C@@H]1CN([C@@H](C)CO)C(=O)c2cc(NC(=O)Nc3ccc(C(F)(F)F)cc3)ccc2O[C@@H](C)CCCCO[C@H]1CN(C)S(=O)(=O)c1cccs1 | inactive
4 | Cc1noc(C)c1NC(=O)N(C)C[C@H]1Oc2ccc(NC(=O)CCN3CCOCC3)cc2C(=O)N([C@H](C)CO)C[C@@H]1C | inactive
5 | C[C@H](CO)N1C[C@H](C)[C@@H](CN(C)CC2CCCCC2)OCCCC[C@H](C)Oc2ccc(NC(=O)Nc3ccc(C(F)(F)F)cc3)cc2C1=O | active
6 | O=C(O)CCC(=O)NCc1cccnc1 | inactive
7 | CN1C(C(=O)Nc2ccccn2)=C(O)c2ccccc2S1(=O)=O | inactive
8 | C[C@@H]1CN([C@@H](C)CO)C(=O)Cc2cc(NC(=O)Nc3ccc(C(F)(F)F)cc3)ccc2O[C@@H]1CN(C)Cc1ccc2c(c1)OCO2 | active
9 | O=C(O)c1ccc2c(c1)OCO2 | inactive
10 | O=C(C[C@@H]1CC=CCCC(=O)OC[C@@H](Cc2c[nH]c3ccccc23)NC1=O)N[C@H](CO)Cc1ccccc1 | inactive
11 | O=C1OCCC/C=C\[C@H]2O[C@@]34C=CCN(c5ccc6ccccc6c5)C(=O)[C@H]3N(CCCO)C(=O)[C@@H]4[C@@H]12 | inactive
12 | Cc1noc(C)c1S(=O)(=O)N(C)C[C@H]1Oc2ccc(NC(=O)NC3CCCCC3)cc2CC(=O)N([C@H](C)CO)C[C@H]1C | inactive
